Measured values taken from PubChem BioAssay AID938 (National Center for Advancing Translational Sciences (NCATS), 2007).
The whole screen tested about 73,000 compounds, of which about 1,800 (2.5%) were called active. Inconclusive means that the source gave no clear call. Such entries were picked first, then a sample of the others. The call rests on the fitted dose curve; in most records, active means well fitted activation curve with a large enough effect; inconclusive means small, poorly fitted or top-dose-only effect; inactive means no such curve, though single readings can be large or run the other way. No potency is given beside an inconclusive call; the fits are too rough.

Assay: qHTS Assay for Agonists of the Thyroid Stimulating Hormone Receptor: Activators of Intracellular cAMP Concentrations in Parental HEK 293; further: nearly all actives have a fitted effect of over 55% in size; on activation: % of control where 0% means no effect
Settings: parental HEK293 CNG cAMP sensor, membrane potential fluorescence; activation: at 57.1 µM (top of the series) unless noted
Method in brief: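 Counterscreen for endogenous-receptor signalling: CNG-channel HEK 293 cells report cAMP rise by membrane depolarization. After 60 min dye equilibration with 100 uM RO 20-1724, compounds incubated 30 min before bottom-read fluorescence at 590 nm.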
Potency means the concentration at half of the fitted maximal effect; tags describe the fitted curve by direction and shape.

Row | Compound | activation | Potency
1 | CCn1c(N2CCN(C(=O)C34CC5CC(CC(C5)C3)C4)CC2)nc2ccccc21 | inactive: 7.61% | 
2 | Cc1nn(-c2ccc(S(=O)(=O)O)cc2)c(O)c1N=Nc1ccc(-c2ccc(N=Nc3ccc4c(S(=O)(=O)O)cc(S(=O)(=O)O)c(N)c4c3O)c(O)c2)cc1O.[Cu].[Cu] | inactive: 4.81% [at 11.4 µM] | 
3 | Cc1ccc2oc(=O)n(CCCOc3ccccc3)c2c1 |  | inconclusive [activator, partial curve, poor fit]
4 | Clc1ccc(CN2C3=NCCN3c3ccccc32)cc1 |  | inconclusive [activator, partial curve]
5 | CCCC[C@@H]1C[C@H]1[C@@H](NP(=O)(c1ccccc1)c1ccccc1)c1ccccc1OC |  | inconclusive [activator, partial curve]
6 | NNC(=O)[C@@H](O)[C@H](O)[C@H](O)CO | inactive: -1.53% [at 11.4 µM] | 
7 | CCOc1ccc(N(C)S(=O)(=O)c2ccc3[nH]cc(C(=O)NCC4CCCO4)c(=O)c3c2)cc1 (stereo not drawn) |  | inconclusive [activator, single point]
8 | N#Cc1c(-n2cccc2/C=N/O)sc2c1CCCC2 |  | inconclusive [activator, single point]
9 | COc1ncc2nc(-c3ccc(F)cc3)c(=O)n(C3CC3)c2n1 |  | inconclusive [activator, single point]
10 | O=C(c1cccs1)N1CCC(c2nc3c(nnn3Cc3ccccc3)c(=O)[nH]2)CC1 |  | inconclusive [activator, single point]
11 | CC(=O)O[C@H]1C[C@H]2CC[C@@H]3[C@@H](CC[C@]4(C)[C@H](OC(C)=O)[C@H]([N+]5(C)CCCCC5)C[C@@H]34)[C@]2(C)C[C@H]1[N+]1(C)CCCCC1 | inactive: 9.6% [at 25.6 µM] | 
12 | CN(C)CCN(Cc1cccs1)c1ccccn1 |  | inactive
13 | COc1ccc(Br)cc1CNC(=O)CCc1nc(-c2ccccc2F)no1 |  | inconclusive [activator, partial curve]
14 | CCc1c(O)nc(SCC(=O)NCc2ccco2)[nH]c1=O |  | inconclusive [activator, single point]
15 | O=C1c2ccccc2-c2ccc(N(Cc3ccc(Br)cc3)Cc3ccc(Br)cc3)cc21 | inactive: 13.6% [at 11.4 µM] | 
16 | CCOC(=O)c1snc(C(=O)NC2CCCCC2)c1N |  | inconclusive [activator, partial curve]
17 | COCCN(CCOC)S(=O)(=O)c1ccc(C(=O)Nc2nc(C)c(C(C)=O)s2)cc1 | inactive: 5.31% | 
18 | Cc1cc(C(=O)OCC(=O)N2c3ccccc3CC2C)c(C)o1 (stereo not drawn) |  | inconclusive [activator, single point]
